These results are taken from the supplement of paper PMC11417369.

The list shows a part of the results.

This assay concerns PfSIP2 AP2 domain 1 (GST-tagged). As to the kind of experiment: gcPBM binding intensity (ln(normalized median fluorescence intensity)); higher = stronger DNA binding. The gist of the method: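 Binding intensity values are the highest Masliner-normalised natural-log median intensity among replicate spots of either probe orientation. The binding step lasted 1 h in 1× PBS with 1% milk, 0.2 mg/ml BSA, 0.5% salmon testes DNA and 0.03% Triton X-100, using GST-tagged P. falciparum DNA-binding domains expressed in E. coli on an Agilent 4 × 180k array of primer-extended double-stranded 36-bp intergenic genomic probes plus negative controls. Alexa488 anti-GST antibody and a 488 nm scan detected bound protein.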
Regarding “TTTCTAATTTATATCACACACATATATAAATAGTAA [CACACA_site6156]”, the “gcPBM binding intensity (ln)” value turned out to be 6.93.
Consider “ATATATATAATTTAAAGTACATATTTAAGAATGAAA [XGTACX_site2238]”, for which the “gcPBM binding intensity (ln)” value was 7.28.
For “TGAAAAGATAAAAAATGTACATATATATTATATATA [XGTACX_site5678]” the value was 7.19; for “TTTCTAAATAATATACACAAAAAAATAAAACACTAA [TGCATGCA_negctrl_site43]”, 7.21.
For “ATACACAATTATTTTCCTATTATGCAAGCAAATTTA [CACACA_negctrl_site1176]” the value was 7.22.
For “GTTTAACTGTTTTATACACACAATGTAGACAATAAA [CACACA_site8967]” the value was 7.13; for “CACTGTAAATAGAAAGTGCAAAAATTGTAAATAAAA [GTGCAC_site9980]”, 8.62; for “GTACAAAAAAAGTGTACACAAAGTAAGACTTTAATT [CACACA_site5068]”, 7.96.
In the case of “ACTTGATTACACAACCACAAGTAATTGAAATTATTT [XGTACX_negctrl_site297]”, the “gcPBM binding intensity (ln)” value was found to be 7.47.
For “TAAATACATTGACACACACACAAATATGTACATACA [CACACA_site7371]” the value was 7.16; for “TTATATGTTTCTTCACGTACGTATAAAAATGAACTT [XGTACX_site1764]”, 7.3; for “TATTTTTATAAAAACTGTACATAATAAATAAAAATA [XGTACX_site4743]”, 7.28.
For “AATCAAAGTAATTTAACACACAATTTTAATACTGTT [CACACA_site7169]” the value was 6.83; for “TATCATGTGCGTGCGTGTACTTAACACACATAATAT [XGTACX_site2404]”, 7.13.
For “TTGTTCATTATGCACAGTACATAAAAAGTAAAAAAA [XGTACX_site2403]”, the “gcPBM binding intensity (ln)” value was 7.46.
For “ATATTGACAAATATTACACACATATATATATATATA [CACACA_site4079]” the value was 9.15; for “TCATTTATTTTAAGGTGTACCGTTTAAAATCACAAA [XGTACX_site3243]”, 6.98; for “TTTTTTTGCGCGGGAAGAATAAAATTTATAGAATAT [TGCATGCA_negctrl_site306]”, 7.2.
Turning to “AATTTACACGTACGTGTACACACAAAAATATGTTTT [CACACA_site8242]”, the “gcPBM binding intensity (ln)” value worked out at 7.44.
In the case of “CAGACATTAATAAGTAGTACACAATAATTGACTAGG [XGTACX_site854]”, the “gcPBM binding intensity (ln)” value is 7.
Take “AATGTTTAATATAACGCATGCCTTAATATAGAATGC [TGCATGCA_site463]”: the “gcPBM binding intensity (ln)” value is 6.87.
For “ATTTCTATAAAAATAATCTACATTTTTTTTTTTTTT [CACACA_negctrl_site917]” the value was 6.88; for “TAACCACAATTTTAATGTACATATATATTTATATAT [XGTACX_site8968]”, 7.14; for “TATATACATATATATATATGTATAGATAGATACATT [CACACA_negctrl_site1511]”, 7.31.
